The full ranking holds about 33,000 sequences; the median of “E-score (-0.5 to 0.5)” is about -0.032, and the highest 2% start at about 0.36. The list shows a part of the results.
These sequences were tested against T1, Sko1 (UniProt Q02100) (assay: PBM E-score (8-mer binding enrichment) (E-score (-0.5 to 0.5)); higher = stronger / more preferred TF binding; most listed sequences are background and not binding sites). Settings: protein concentration: 200 nM; construct: GST-full length.
T1 sequence: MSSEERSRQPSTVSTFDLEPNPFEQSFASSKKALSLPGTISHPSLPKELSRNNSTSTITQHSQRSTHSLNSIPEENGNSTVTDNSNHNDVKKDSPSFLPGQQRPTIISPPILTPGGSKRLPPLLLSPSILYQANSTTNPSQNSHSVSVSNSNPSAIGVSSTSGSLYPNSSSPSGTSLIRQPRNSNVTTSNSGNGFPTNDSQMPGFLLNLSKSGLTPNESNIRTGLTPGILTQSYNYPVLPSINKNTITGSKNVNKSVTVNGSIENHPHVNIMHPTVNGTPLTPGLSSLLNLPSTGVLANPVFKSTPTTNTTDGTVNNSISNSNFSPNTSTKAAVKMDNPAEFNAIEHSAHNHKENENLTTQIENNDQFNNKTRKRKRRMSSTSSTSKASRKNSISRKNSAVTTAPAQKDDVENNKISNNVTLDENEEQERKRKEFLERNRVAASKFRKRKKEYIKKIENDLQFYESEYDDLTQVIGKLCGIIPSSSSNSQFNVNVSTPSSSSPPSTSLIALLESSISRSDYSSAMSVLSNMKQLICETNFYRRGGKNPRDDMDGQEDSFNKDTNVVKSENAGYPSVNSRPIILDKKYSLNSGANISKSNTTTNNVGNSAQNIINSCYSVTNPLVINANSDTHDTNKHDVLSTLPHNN
Method: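 Universal 'all 10-mer' protein binding microarrays (Agilent AMADID 015681) probed with GST-tagged S. cerevisiae TFs (full-length or DBD) made by in vitro transcription/translation (PURExpress), about 100-200 nM. Bound TF was detected with fluorescent anti-GST. Each ungapped 8-mer (which stands for itself and its reverse complement) is scored by the PBM enrichment score (E-score), a modified Wilcoxon-Mann-Whitney statistic from -0.5 to +0.5, computed with the Universal PBM Analysis Suite. Scale: above 0.35 generally sequence-specific binding.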
With GTCGCTCA the “PBM E-score” value was -0.0393. For TCCATCCA, the “PBM E-score” value was -0.18. TCCTTCAA was tested, and the “PBM E-score” value was -0.0364. For ACGATGTG, the “PBM E-score” value was 0.135. With CATTCTCC the “PBM E-score” value was 0.00192. With AGCTACGA the “PBM E-score” value was 0.06. For GACTAGTA, the “PBM E-score” value was -0.0126. With ACTATTTC the “PBM E-score” value was 0.0893. In the case of ACCCCCCG, the “PBM E-score” value is reported as -0.306. ACAAGCTC was tested, and the “PBM E-score” value was -0.224. In the case of CGAAGGAC, the “PBM E-score” value is reported as -0.158. In the case of GGCCAGCC, the “PBM E-score” value is reported as -0.217. In the case of CACTGTCG, the “PBM E-score” value is reported as -0.11. For AATCAGAA, the “PBM E-score” value was 0.0831. In the case of AATTTGAG, the “PBM E-score” value is reported as -0.00828. For ATCTCCAT, the “PBM E-score” value was -0.125. GGACTGAC was tested, and the “PBM E-score” value was -0.139. In the case of ATTTATTA, the “PBM E-score” value is reported as 0.25. In the case of TTTGAAAA, the “PBM E-score” value is reported as 0.254. TGGACAAA was tested, and the “PBM E-score” value was 0.00772. CCACTGAC was tested, and the “PBM E-score” value was -0.031. With CGTTGCAC the “PBM E-score” value was 0.11. GATATCAC was tested, and the “PBM E-score” value was 0.145. In the case of CCGTTTCG, the “PBM E-score” value is reported as -0.17. In the case of CGCACCGA, the “PBM E-score” value is reported as 0.06. In the case of AATTCGAC, the “PBM E-score” value is reported as -0.287. For ACAGTTCG, the “PBM E-score” value was -0.014. AGAGCGTA was tested, and the “PBM E-score” value was -0.00503. For CTTGTGCA, the “PBM E-score” value was -0.154. ACCCTACC was tested, and the “PBM E-score” value was -0.126. With TACGATGA the “PBM E-score” value was 0.326. With CCTGTAGC the “PBM E-score” value was -0.288. For GCCTTAAC, the “PBM E-score” value was -0.145. For CTCTGGGC, the “PBM E-score” value was -0.164. In the case of AGGGGTAA, the “PBM E-score” value is reported as -0.118. With CGAGGCGC the “PBM E-score” value was -0.192. For AACACCGG, the “PBM E-score” value was -0.092. For AACCGGGG, the “PBM E-score” value was -0.131. In the case of GACGCGCA, the “PBM E-score” value is reported as 0.106. For AATGACGC, the “PBM E-score” value was 0.478. With AGTGAGCA the “PBM E-score” value was 0.00764. For ATCGAGAG, the “PBM E-score” value was -0.0574. For CGACGCGC, the “PBM E-score” value was -0.0314. For TATCATAA, the “PBM E-score” value was 0.201. CGAACCGC was tested, and the “PBM E-score” value was 0.0504. GCGCACAC was tested, and the “PBM E-score” value was -0.133. For CGCAACGC, the “PBM E-score” value was 0.083. For ACAGTTTA, the “PBM E-score” value was 0.0292. For GGGGATAC, the “PBM E-score” value was -0.115. For CAAGTCAC, the “PBM E-score” value was 0.0504. For GAGCACCC, the “PBM E-score” value was -0.333. With CAGATTTC the “PBM E-score” value was -0.0944. In the case of CGGATTAC, the “PBM E-score” value is reported as 0.193. In the case of CCTAGAGC, the “PBM E-score” value is reported as -0.38. For CACGCCTA, the “PBM E-score” value was 0.0673. With GGCTTTCA the “PBM E-score” value was 0.055. GTTTCACA was tested, and the “PBM E-score” value was 0.147. For CGTTGGAG, the “PBM E-score” value was 0.0224. For GCCGCCCA, the “PBM E-score” value was -0.211. With GACTGCCA the “PBM E-score” value was -0.0422. With ACGTGCCC the “PBM E-score” value was 0.34. In the case of ACGCACAA, the “PBM E-score” value is reported as 0.262. In the case of AGTCAAAG, the “PBM E-score” value is reported as -0.026. With AATGAAGG the “PBM E-score” value was -0.0596. In the case of CCTCGATA, the “PBM E-score” value is reported as 0.00048. With GCTTCCTA the “PBM E-score” value was 0.0147. In the case of AACAAACG, the “PBM E-score” value is reported as 0.186. In the case of AGTCTGGA, the “PBM E-score” value is reported as -0.153. TCTCTACA was tested, and the “PBM E-score” value was 0.00601. GCGGTCCC was tested, and the “PBM E-score” value was -0.234. In the case of ATGAAAGC, the “PBM E-score” value is reported as 0.13. For TTAGGGAA, the “PBM E-score” value was -0.0461. With CAGAGAAC the “PBM E-score” value was 0.00541. For AGGCACGA, the “PBM E-score” value was 0.0425. ATAACGTC was tested, and the “PBM E-score” value was 0.425. With GCTTGAAA the “PBM E-score” value was 0.0634. For GCGCTTCC, the “PBM E-score” value was -0.0663. In the case of GGCAGACA, the “PBM E-score” value is reported as -0.18. For GCCCCAAA, the “PBM E-score” value was -0.197. With TCGCTTCA the “PBM E-score” value was -0.13. With CTTTGTCA the “PBM E-score” value was 0.0775. With ACCGCAAG the “PBM E-score” value was 0.0178. For AGGAATGG, the “PBM E-score” value was 0.003. In the case of GATCATAC, the “PBM E-score” value is reported as 0.14. In the case of AGACTTCC, the “PBM E-score” value is reported as -0.329. CGACCTAG was tested, and the “PBM E-score” value was -0.00293. For AATACACC, the “PBM E-score” value was 0.0896. With ATACAAGC the “PBM E-score” value was -0.0788. CGACTGGC was tested, and the “PBM E-score” value was -0.248. For ACATGTGA, the “PBM E-score” value was 0.198. CTGTTGAC was tested, and the “PBM E-score” value was 0.0361. CAGGGTGG was tested, and the “PBM E-score” value was -0.3. ACTTTATA was tested, and the “PBM E-score” value was 0.151. In the case of CAAAATAA, the “PBM E-score” value is reported as 0.122. With AGATACGC the “PBM E-score” value was 0.264. In the case of ACGTCCTC, the “PBM E-score” value is reported as 0.206. In the case of GATGACCA, the “PBM E-score” value is reported as 0.0721. For ATTCTACC, the “PBM E-score” value was 0.00672. For CACATATC, the “PBM E-score” value was 0.0388. For ATCTGAGA, the “PBM E-score” value was -0.0991. For ATTGACTC, the “PBM E-score” value was -0.0271. For ATGTTCGA, the “PBM E-score” value was 0.0746. GTCAGGGA was tested, and the “PBM E-score” value was -0.102. For AGCATAAC, the “PBM E-score” value was 0.0904. For GCTCGGTA, the “PBM E-score” value was -0.129. In the case of TACGGATA, the “PBM E-score” value is reported as 0.137. ATAAACAT was tested, and the “PBM E-score” value was 0.233. For GAATTGGC, the “PBM E-score” value was -0.128. For GTATGCAA, the “PBM E-score” value was 0.177.

Source: the supplement of paper PMC3334620
